Measurements: the supplement of paper PMC12355420
Structures can show the parent of a compound that is named as a salt. The list shows a part of the results. No stated cut-off is given here; in the data, active = 0.5 or less and inactive = the rest. Many values rest on one well or one pass, so single values are uncertain.

Columns and labels:
Conditions in all cases: 50 µM; 24 h
[1] = tested on: HeLa VPS33A reporter cells; experiment: relative cell viability (CellMask signal) vs DMSO (fraction of DMSO); higher = less cytotoxic;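 further: primary screen of an FDA-approved drug library in HeLa reporter cells in 96-well format, CellMask signal normalized to DMSO-treated wells set as 1, under 0.5 deemed highly cytotoxic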
[2] = tested on: HeLa VPS33A R498W KI + HA-SDC1-FLAG; experiment: relative GAG core protein HA-SDC1 amount per cell number vs DMSO (fraction of DMSO); higher = more SDC1 (GAG core protein);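 further: HA-SDC1 level read out by In-Cell Western staining with an anti-HA antibody against the N-terminal tag, screening FDA-approved library drugs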
[3] = tested on: HeLa VPS33A KO + NLuc-VPS33A R498W; experiment: relative mutant VPS33A R498W amount (NanoLuc luminescence) vs DMSO (fraction of DMSO); HeLa model of a glycosaminoglycan (GAG) storage disease; KI is knock-in and KO knock-out; SDC1 is syndecan 1; higher = higher mutant VPS33A level;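 further: screen of an FDA-approved drug library, NanoLuc luminescence read after lysing the treated cells, taken as a measure of mutant VPS33A protein stability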

| SMILES | relative cell viability [1] | relative GAG core protein HA-SDC1 amount per cell number [2] | relative mutant VPS33A R498W amount [3] |
| --- | --- | --- | --- |
| OCCN(CCO)c1nc(N2CCCCC2)c2nc(N(CCO)CCO)nc(N3CCCCC3)c2n1 [Dipyridamole] | 1.06 | inactive: 1.07 | 0.982 |
| O=C(O)c1cc(/N=N/c2ccc(O)c(C(=O)O)c2)ccc1O [Olsalazine Sodium] | 1.07 | inactive: 1.72 | 0.855 |
| O=c1c(O)c(-c2ccc(O)cc2O)oc2cc(O)cc(O)c12 [Morin] | 0.889 | inactive: 0.907 | 0.497 |
| COc1ccc(O)cc1 [Mequinol] | 0.99 | inactive: 0.937 | 1.1 |
| CCOC(=O)n1ccn(C)c1=S [Carbimazole] | 1 | inactive: 0.898 | 1.1 |
| Cc1cc(C)nc(NS(=O)(=O)c2ccc(N)cc2)n1 [Sulfamethazine] | 0.969 | inactive: 0.942 | 1.55 |
| Nc1ncnc2c1ncn2[C@@H]1O[C@H](CO)[C@@H](O)[C@H]1O [Adenosine] | 1.14 | inactive: 0.783 | 1.64 |
| CC(=O)S[C@@H]1CC2=CC(=O)CC[C@]2(C)[C@H]2CC[C@@]3(C)[C@@H](CC[C@@]34CCC(=O)O4)[C@H]12 [Spironolactone] | 1.17 | inactive: 0.818 | 0.8 |
| c1ccc2[nH]c(-c3cscn3)nc2c1 [Thiabendazole] | 1.52 | inactive: 0.685 | 0.817 |
| C[C@H](Cn1cnc2c(N)ncnc21)OCP(=O)(O)O [Tenofovir] | 0.921 | inactive: 1.32 | 1.47 |
| CCN(CC)Cc1cc(Nc2ccnc3cc(Cl)ccc23)ccc1O [Amodiaquine dihydrochloride dihydrate] | 1.08 | inactive: 0.875 | 2.9 |
| CO/N=C(\C(=O)N[C@@H]1C(=O)N2C(C(=O)O)=C(CSc3nc(=O)c(O)nn3C)CS[C@H]12)c1csc(N)n1 [Ceftriaxone Sodium Trihydrate] | 1.04 | inactive: 1.03 | 1.23 |
| CN1CCN(C2=Nc3cc(Cl)ccc3Nc3ccccc32)CC1 [Clozapine] | 0.666 | active: 0.278 | 0.456 |
| CC1OC(O)C(O)C(O)C1O [L-(-)-Fucose] | 1.19 | inactive: 0.739 | 1.13 |
| CC(=O)Oc1cccc2c1C(=O)c1c(OC(C)=O)cc(C(=O)O)cc1C2=O [Diacerein] | 0.931 | inactive: 0.712 | 1.18 |
| Cc1ccnc(NS(=O)(=O)c2ccc(N)cc2)n1 [Sulfamerazine] | 1.21 | inactive: 0.885 | 0.972 |
| CC(C)C(=O)Nc1ccc([N+](=O)[O-])c(C(F)(F)F)c1 [Flutamide] | 0.922 | active: 0.303 | 0.913 |
| O=C(O)C1=C(CSc2nnnn2CS(=O)(=O)O)CS[C@@H]2[C@H](NC(=O)[C@H](O)c3ccccc3)C(=O)N12 [Cefonicid (sodium salt)] | 0.99 | inactive: 0.849 | 1.48 |
| CCn1cc(C(=O)O)c(=O)c2cc(F)c(N3CCNCC3)nc21 [Enoxacin (Penetrex)] | 1.07 | inactive: 0.576 | 0.607 |
| CN(C)CC/C=C1/c2ccccc2COc2ccc(CC(=O)O)cc21 [Olopatadine HCl] | 1.04 | inactive: 0.953 | 1.26 |

| SMILES | relative cell viability [1] | relative GAG core protein HA-SDC1 amount per cell number [2] | relative mutant VPS33A R498W amount [3] |
| --- | --- | --- | --- |
| C[C@]12CC[C@@H]3c4ccc(OS(=O)(=O)O)cc4CC[C@H]3[C@@H]1CCC2=O [Estropipate] | 1.04 | inactive: 0.828 | 1.14 |
| C=C1/C(=C\C=C2/CCC[C@]3(C)[C@@H]([C@H](C)CCCC(C)(C)O)CC[C@@H]23)C[C@@H](O)C[C@@H]1O [Calcitriol] | 0.957 | inactive: 0.809 | 1.5 |
| CCOc1ccc2ccccc2c1C(=O)N[C@@H]1C(=O)N2[C@@H]1SC(C)(C)[C@@H]2C(=O)O [Nafcillin Sodium] | 0.97 | inactive: 1.01 | 1.44 |
| O=C1CCc2cc(OCCCCc3nnnn3C3CCCCC3)ccc2N1 [Cilostazol] | 1.03 | inactive: 1.02 | 1.27 |
| Nc1nc(Cl)nc2c1ncn2[C@H]1C[C@H](O)[C@@H](CO)O1 [Cladribine] | 1.39 | inactive: 0.876 | 0.927 |
| COC(=O)C1=C(C)NC(C)=C(C(=O)OC2CCCN(Cc3ccccc3)C2)C1c1cccc([N+](=O)[O-])c1 (configuration not stated) [Benidipine HCl] | 0.926 | active: 0.284 | 0.333 |
| NCC(=O)NCC(=O)O [Glycylglycine] | 1.04 | inactive: 1.03 | 1.12 |
| O=C1CN2Cc3c(ccc(Cl)c3Cl)N=C2N1 [Anagrelide HCl] | 1.02 | inactive: 0.704 | 0.282 |
| CNNCc1ccc(C(=O)NC(C)C)cc1 [Procarbazine HCl] | 0.998 | inactive: 1.32 | 1.11 |
| CCn1cc(C(=O)O)c(=O)c2cc(F)c(N3CCN(C)CC3)cc21 [Pefloxacin Mesylate] | 0.98 | inactive: 0.977 | 1.06 |
| CCOc1cc(N)c(Cl)cc1C(=O)NCC1CN(Cc2ccc(F)cc2)CCO1 (configuration not stated) [Mosapride Citrate] | 1.33 | inactive: 1.29 | 0.931 |
| Nc1nc(O)c2ncn(CCC(CO)CO)c2n1 [Penciclovir] | 0.857 | inactive: 1.01 | 1.5 |
| NC(=O)C1CCCc2c1[nH]c1ccc(Cl)cc21 (configuration not stated) | 0.885 | inactive: 0.697 | 0.834 |
| CCCCC[C@H](O)/C=C/[C@@H]1[C@@H](C/C=C\CCCC(=O)O)[C@@H](O)C[C@H]1O [Prostaglandin F2α] | 1.02 | inactive: 1.21 | 1.57 |
| CCCCCCCCCCCCCCC(=O)O [Pentadecanoic Acid] | 0.957 | inactive: 0.779 | 0.596 |
| NC[C@@H]1O[C@H](O[C@H]2[C@@H](O)[C@H](O[C@@H]3[C@@H](O)[C@H](N)C[C@H](N)[C@H]3O[C@H]3O[C@H](CO)[C@@H](O)[C@H](O)[C@H]3N)O[C@@H]2CO)[C@H](N)[C@@H](O)[C@@H]1O [Paromomycin Sulfate] | 0.892 | inactive: 1.08 | 0.97 |
| CCCCCCCCCCCCCCCC(=O)OC [Palmitic Acid methyl ester] | 0.974 | inactive: 0.808 | 1.41 |
| N=C(N)NC(=N)N1CCOCC1 [Moroxydine HCl] | 0.985 | inactive: 1.1 | 1.31 |
| NCCCC(=O)O [4-Aminobutyric acid] | 1.05 | inactive: 0.984 | 1.17 |
| C#CCN[C@@H]1CCc2ccccc21 [Rasagiline] | 1.06 | inactive: 0.868 | 1.19 |

| SMILES | relative cell viability [1] | relative GAG core protein HA-SDC1 amount per cell number [2] | relative mutant VPS33A R498W amount [3] |
| --- | --- | --- | --- |
| Clc1ccc(C(Cn2ccnc2)OCc2ccsc2Cl)c(Cl)c1 (configuration not stated) [Tioconazole] | 1.18 | active: 0.354 | 0.864 |
| NCCc1c[nH]cn1 [Histamine Phosphate] | 0.84 | inactive: 1.31 | 1.03 |
| O=C(O)[C@H](CC(=O)N1C[C@H]2CCCC[C@H]2C1)Cc1ccccc1 [Mitiglinide Calcium] | 1.04 | inactive: 0.745 | 1.52 |
| COc1cc(OC)c(C(=O)CCCN2CCCC2)c(OC)c1 [Buflomedil HCl] | 1.09 | inactive: 0.781 | 1.24 |
| NC[C@H]1O[C@H](O[C@H]2[C@H](O)[C@@H](O[C@H]3O[C@H](CO)[C@@H](O)[C@H](N)[C@H]3O)[C@H](N)C[C@@H]2N)[C@H](O)[C@@H](O)[C@@H]1O [Kanamycin Sulfate] | 1.36 | inactive: 1.17 | 0.95 |
| COC(=O)C1=C(C)NC(C)=C(C(=O)OC(C)C)C1c1cccc2nonc12 (configuration not stated) [Isradipine (Dynacirc)] | 1.07 | active: 0.292 | 0.33 |
| CCCc1nn(C)c2c(=O)[nH]c(-c3cc(S(=O)(=O)N4CCN(C)CC4)ccc3OCC)nc12 [Sildenafil] | 1.1 | inactive: 1.94 | 1.21 |
| N=C(N)NCCC[C@@H](NC(=O)[C@@H]1CCCN1C(=O)[C@@H]1CSSCCC(=O)N[C@@H](Cc2ccc(O)cc2)C(=O)N[C@@H](Cc2ccccc2)C(=O)N[C@@H](CCC(N)=O)C(=O)N[C@@H](CC(N)=O)C(=O)N1)C(=O)NCC(N)=O [Desmopressin] | 1.05 | inactive: 1.4 | 1.13 |
| O=C1CCCC(=O)C1C(=O)c1ccc(C(F)(F)F)cc1[N+](=O)[O-] [Nitisinone] | 1 | inactive: 0.845 | 0.984 |
| CC(C)[C@H]1CC[C@H](C(=O)N[C@H](Cc2ccccc2)C(=O)O)CC1 [Nateglinide] | 1.08 | inactive: 0.715 | 1.38 |
| O=C(O)[C@@H]1CCCN1 [L-Proline] | 0.978 | inactive: 0.984 | 1.03 |
| Nc1ccc(S(=O)(=O)Nc2ncccn2)cc1 [Sulfadiazine] | 1.15 | inactive: 0.942 | 0.862 |
| O=c1[nH]cnc2c1ncn2[C@H]1CC[C@@H](CO)O1 [Didanosine] | 1.51 | inactive: 0.997 | 1.09 |
| O=C1CC[C@@H](C(=O)N2CSC[C@H]2C(=O)O)N1 [Pidotimod] | 0.913 | inactive: 1.08 | 1.59 |
| CNC(=O)c1cc(Oc2ccc(NC(=O)Nc3ccc(Cl)c(C(F)(F)F)c3)c(F)c2)ccn1 [Regorafenib] | 0.968 | active: 0.496 | 0.162 |
| CC(C)(C(=O)c1cccnc1)c1cccnc1 [Metyrapone] | 1.1 | inactive: 0.793 | 1.04 |
| c1ccc(CC2=NCCN2)cc1 [Tolazoline HCl] | 1.25 | inactive: 0.767 | 0.912 |
| CNC(=O)CN(CCN(CCN(CC(=O)[O-])CC(=O)NC)CC(=O)[O-])CC(=O)[O-].[Gd+3] [Gadodiamide] | 0.854 | inactive: 1.08 | 0.925 |
| C=C1CC[C@@H]2[C@](C)(CO)[C@H](O)CC[C@@]2(C)[C@@H]1C/C=C1/C(=O)OC[C@H]1O [Andrographolide] | 0.827 | active: 0.326 | 2.16 |
